# Source: PubChem BioAssay AID686979 (National Center for Advancing Translational Sciences (NCATS), 2013)
# Among all 420,000 compounds or so, about 50,000 (12%) were called active. Inconclusive results, whose numbers are uncertain, are shown with a selection of clear calls. The call rests on the fitted dose curve; in most records, active means well fitted inhibition curve with a large enough effect; inconclusive means small, poorly fitted or top-dose-only effect; inactive means flat fitted curve, though single readings scatter. Potencies of inconclusive entries are left out as doubtful fits.
# Test: qHTS for Inhibitors of human tyrosyl-DNA phosphodiesterase 1 (TDP1): qHTS in cells in presence of CPT; further: nearly all actives have a fitted effect of over 55% in size
# Conditions: chicken DT40 Tdp1-/-;hTDP1 cells + 20 nM CPT, ATP luminescence, 48 h; series mostly up to 46.2 µM
# How it was run: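 Chicken DT40 Tdp1-/- cells complemented with human TDP1, 400 cells/well, exposed to compounds plus 20 nM camptothecin for at least 48 h at 37 C; viability read as ATP content by CellTiter-Glo luminescence.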
# Potency means the concentration at half of the fitted maximal effect; tags describe the fitted curve by direction and shape.
row,SMILES,Potency
1,COc1cc(-c2noc(CCC(=O)Nc3cc(C)ccc3C)n2)cc(OC)c1OC,active: 18.4 µM
2,COc1ccc(NC(=O)C(Cc2ccccc2)n2cccc2)cc1OC (centres undefined),active: 8.2 µM
3,CC(=O)NC(C)(c1ccccc1)c1nc(-c2cnc3ccccc3c2)cs1 (centres undefined),"inconclusive [inhibitor, single point]"
4,COc1cccc(CNC(=O)CCNS(=O)(=O)c2ccc3[nH]c(=O)oc3c2)c1,inactive
5,Cc1ccc(-n2ncc(C(=O)NCCc3c[nH]c4ccccc34)c2C2CCN(C(=O)OC(C)(C)C)CC2)cc1C,active: 16.4 µM
6,C=CCN(Cc1ccc(OC)c(OC)c1)C(=O)c1cc2cc(F)ccc2[nH]1,active: 13 µM
7,CN1C(=O)/C(=C\C(=O)c2cccs2)c2ccccc21,active: 13 µM
8,CS(=O)(=O)N(CC(=O)N1CCOCC1)c1ccccc1,inactive
9,O=C(NC1CCCc2ccccc21)c1ccccc1 (centres undefined),inactive
10,Cc1cc(C)nc(/N=C(\N)Nc2cccc([N+](=O)[O-])c2)n1,"inconclusive [inhibitor, single point]"
11,COc1ccc(C(C)NC(=S)NC2CCCCC2)cc1OC (centres undefined),inactive
12,Cc1ccc(NC(=O)C(=O)NCCN2CCN(S(=O)(=O)c3ccccc3)CC2)cc1C,"inconclusive [inhibitor, single point]"
13,CC(CNC(=O)CCc1nnc(CCC2CCCCC2)o1)c1ccccc1 (centres undefined),inactive
14,CC(NC(=O)NC(=O)c1ccc(Cl)cc1)c1ccccc1 (centres undefined),"inconclusive [inhibitor, partial curve]"
15,O=C(N/N=C/c1cc(Br)c(O)c(Br)c1O)c1ccc2c(c1)OCCO2,active: 11.6 µM
16,COc1ccc(-c2c3c(nc4sc5c(=O)[nH]c(C)nc5c24)CCC3)cc1,"inconclusive [inhibitor, single point]"
17,Cc1c(Cc2ccccc2)c(=O)oc2c(C)c(OCC(=O)Nc3ccc(C#N)cc3)ccc12,inactive
18,C/C(=N\NC(=O)c1cc(C)nc2ccccc12)c1ccc([N+](=O)[O-])cc1,inactive
19,Cc1ccccc1C(=O)N(Cc1nc(-c2ccc(Cl)cc2)no1)C(C)C,active: 14.6 µM
20,CCOc1cccc2cc(C(=O)Oc3ccc(OC)cc3)c(=O)oc12,inactive
21,CCN(CC)c1ccc(/C=N/NC(=O)c2ccco2)cc1,"inconclusive [inhibitor, full curve, poor fit]"
22,Cc1ccc(OC(=O)CSc2nnc(-c3cccs3)o2)cc1,inactive
23,CCn1c(=O)cc(OCC(=O)N2CCN(C(=O)c3ccco3)CC2)c2ccccc21,"inconclusive [inhibitor, single point]"

row,SMILES,Potency
1,COc1cc(F)ccc1-c1csc(C(NC(C)=O)c2cccc(F)c2)n1 (centres undefined),"inconclusive [inhibitor, single point]"
2,O=C(Nc1cccc(Cl)c1N1CCOCC1)c1ccc([N+](=O)[O-])o1,"inconclusive [inhibitor, full curve]"
3,CCC(=O)Nc1ccc(CC)cc1-c1nc2ccccc2n(Cc2ccccc2)c1=O,"inconclusive [inhibitor, single point]"
4,CCCNC(=O)c1ccccc1NC(=O)c1ccccc1N(C)S(=O)(=O)c1ccccc1,"inconclusive [inhibitor, single point]"
5,Cc1ccc(N2CC(C(=O)N(C)CC(=O)Nc3ccc(Cl)c(C(F)(F)F)c3)CC2=O)cc1 (centres undefined),"inconclusive [inhibitor, single point]"
6,COc1ccc2cc(C(N)=O)/c(=N/NC(=O)c3ccco3)oc2c1,"inconclusive [inhibitor, single point]"
7,Cc1ccc(NC(=O)c2ccc(CSc3ccccn3)cc2)cc1,"inconclusive [inhibitor, single point]"
8,CCc1nc2ccccc2c(C(=O)OCC(=O)C(C)(C)C)c1C,"inconclusive [inhibitor, single point]"
9,CN(C(=O)CSC1=Nc2ccccc2C2=NC(c3ccccc3)C(=O)N12)C1CCCCC1 (centres undefined),active: 20.6 µM
10,CC(NC(=O)CN(c1ccc(Cl)cc1Cl)S(=O)(=O)c1ccccc1)c1ccccc1 (centres undefined),"inconclusive [inhibitor, single point]"
11,Cc1nn(C)cc1C(C(=O)NC1CCCCC1)N(C(=O)Cc1cccs1)c1ccc(F)cc1 (centres undefined),"inconclusive [inhibitor, full curve]"
12,O=C(Cn1c(-c2cccs2)cc2cc(Cl)ccc21)N1CCN(c2ccccc2F)CC1,"inconclusive [inhibitor, single point]"
13,COc1cc(/C=N/n2nnnc2Nc2ccccc2)cc(OC)c1OC,active: 14.6 µM
14,CCOC(=O)c1cn[nH]c1NC(=S)Nc1ccc(OC)cc1,"inconclusive [inhibitor, single point]"
15,CCOC(=O)c1[nH]c2ccc(Br)cc2c1NC(=O)CCN1CCCC(C)(C)C1,"inconclusive [inhibitor, single point]"
16,Cc1cc(C(C)c2ccccc2)c(O)c(CN2CCOCC2)c1C (centres undefined),"inconclusive [inhibitor, single point]"
17,O=C(Cn1ccc2cc(S(=O)(=O)N3CCCCC3)ccc21)NCc1cccc(Cl)c1,"inconclusive [inhibitor, single point]"
18,Cc1cccc(N2CCN(C(=S)c3ccc4c(c3)OCO4)CC2)c1,active: 6.51 µM
19,COc1cccc(/C=N/NC(=O)C(=O)Nc2ccccc2OC(F)(F)C(F)F)c1,inactive
20,CC1CCC(NC(=O)c2cc3c(Cl)nc4ccccc4c3s2)CC1 (centres undefined),"inconclusive [inhibitor, single point]"
21,O=C(Nc1cccc(Cl)c1)OCc1cncs1,inactive
22,COc1ccccc1C(=O)NC(=O)COC(=O)CNC(=O)c1ccccc1F,inactive
23,NC(=O)COc1ccc2oc(=O)cc(-c3cc4ccccc4o3)c2c1,"inconclusive [inhibitor, single point]"

row,SMILES,Potency
1,c1ccc(C2C/C(=N\N3CCOCC3)c3ccccc3O2)cc1 (centres undefined),"inconclusive [inhibitor, single point]"
2,Cc1ccc(C(=O)c2ccccc2C(=O)OCC(=O)NC(C)(C)C)cc1,"inconclusive [inhibitor, single point]"
3,O=C(Cc1cccs1)N(Cc1ccco1)C1(C(=O)NC2CCCC2)CCCCC1,"inconclusive [inhibitor, single point]"
4,CCN(CC)S(=O)(=O)c1ccc(N2CCCC2)c(C(=O)Nc2ccc(OC)c(Cl)c2)c1,"inconclusive [inhibitor, single point]"
5,COc1ccc(OC)c(NC(=O)Nc2nc(CN)cs2)c1,"inconclusive [inhibitor, single point]"
6,CCOC(=O)C(C)NC(=O)C1CCN(c2ncnc3c2nc2n3CCCCC2)CC1 (centres undefined),"inconclusive [inhibitor, single point]"
7,CCOC(=O)c1c(C)[nH]c(C(=O)CSc2nccc(C)n2)c1C,inactive
8,Cc1cccc(N2C(=O)CC(N3CCN(Cc4ccc(Cl)cc4)CC3)C2=O)c1 (centres undefined),"inconclusive [inhibitor, single point]"
9,Cc1nn(Cc2c(Cl)cccc2Cl)c(Cl)c1/C=C/C(=O)OCC(=O)NCC(F)(F)F,"inconclusive [inhibitor, partial curve]"
10,O=c1cnc2cnc(N3CCNCC3)nc2n1Cc1ccc(F)cc1,inactive
11,COc1ccccc1OCc1nnc(SCC(=O)Nc2ccc(N3CCOCC3)cc2)n1C,inactive
12,CC(=O)Nc1ccccc1-c1nc2ccccc2n(Cc2cccc(Br)c2)c1=O,inactive
13,COc1ccc(F)cc1S(=O)(=O)Nc1cccc(-c2ccc(N3CCCCCC3)nn2)c1,"inconclusive [inhibitor, partial curve]"
14,COC(=O)c1ccccc1NC(=O)C1CCN(C(=O)c2cc(OC)cc(OC)c2)CC1,"inconclusive [inhibitor, single point]"
15,CCOc1ccccc1NC(=O)C1CCCN1C(=O)OCc1ccccc1 (centres undefined),"inconclusive [inhibitor, single point]"
16,N#C/C=C1\n2c(nc3ccccc32)OC12CCCCC2,"inconclusive [inhibitor, partial curve, poor fit]"
17,Cc1ccc(S(=O)(=O)N2C[C@@H](C)[C@]3(C2)[C@H](O)[C@H](OC(=O)NCc2ccccc2)C[C@H]2C(=O)N(c4ccccc4)C(=O)[C@H]23)cc1,"inconclusive [inhibitor, single point]"
18,CC1C(=O)N(Cc2cn(Cc3ccco3)nn2)CCS(=O)(=O)N1Cc1ccc(-c2ccncc2)cc1 (centres undefined),"inconclusive [inhibitor, single point]"
19,O=c1[nH]c2c(n(C3CCCCC3)c1=O)CCC2,"inconclusive [inhibitor, single point]"
20,O=C(Nc1cccc(Cl)c1)c1ccc(OC(=S)N2CCOCC2)cc1,"inconclusive [inhibitor, single point]"
21,Cc1ccc(C(=O)N/C(=C\c2ccc(-c3ccc(Br)cc3)o2)C(=O)NCCCN(C)C)cc1,active: 4.61 µM
22,CN(CC1CCCN(CCc2ccc(Cl)cc2)C1)C(=O)c1ccc2nc[nH]c2c1 (centres undefined),"inconclusive [inhibitor, single point]"
23,CCC1(C)Cc2c(sc3c2c(=O)n(C)c2nnc(SCc4ccc5c(c4)OCO5)n32)CO1 (centres undefined),"inconclusive [inhibitor, partial curve]"
